Values marked as one replicate rest on one cluster of the flow cell; about a third of the high ones do not repeat.
System: ATP
Experiment: switch fluorescence ratio, 500 uM ATP over buffer (Cy3 cluster intensity, sum of 5 cycles each) (fold (ratio)); higher = stronger signal-on switching upon ATP binding; sequences stand for … in TCGTCGGCAGCGTCAGATGTGTATAAGAGACAGTTTTTTTTTTTTTTTTTTTTTTTTT…TC
Settings: aptamer strand: ATP DNA aptamer (quencher-CACCTGGGGGAGTATTGCGGAGGAAGG + anchor), 100 nM annealed; ATP concentration: 500 uM; one replicate
How it was run: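 Per cluster, summed Cy3 intensity from the target cycles was divided by that from the buffer cycles to give the fluorescence ratio, then averaged per switch-domain sequence. Clusters outside 100-1000 RFU were excluded. The Cy3-labelled switching-strand clusters, on a modified Illumina MiSeq flow-cell, were annealed to 100 nM quencher-labelled ATP aptamer and imaged in selection buffer, then after 15 min with 500 uM ATP at 22 °C, for five cycles with NaOH stripping and re-annealing between them.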
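Also: ATP exposure 15 min at 22 °C before imaging.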

Sequence | switch fluorescence ratio
GCTTGGATAC | 1.12
ACGAGTCAGA | 0.998
ATTCTTAAGC | 1.01
TTGCGTATTC | 1.31
TGATTACTCC | 1.24
TCCACGGCGA | 2.84
ATTTGGAG | 0.989
GCGAATAACT | 1.05
TTTTATCGA | 0.998
AAGGAGACG | 1.03
TGTATCGGAT | 1.01
ACCTGGGTGC | 2.28
ATGTGCTTTT | 0.988
TCGATACCTA | 1.05
TGGCTTATGT | 1.01
AGCAGTCGTC | 1.06
GCTAGCGGGG | 1.03
GGAGGACCAG | 0.958
AGCCTTGTGG | 0.991
GGATATGTTT | 1.04
TAGAATGTGC | 0.982
TAGACCGGAA | 1.12
CGTCTCCTG | 0.967
AATGGTTAAA | 0.975
GTATGAATAG | 0.936
AAACACCCG | 1.05

Sequence | switch fluorescence ratio
CACGTCGTAT | 1.01
CTCCTCATAT | 3.53
ATGGACGCTT | 1.07
GAATGCTACT | 1.03
GATGGAATAG | 1.47
TCCCAATCGA | 1.28
TGCTCTCGGT | 0.979
GGACATATAG | 0.985
CATAGCTGCA | 1.04
CTAGGAGTTA | 0.999
GATCATAGAA | 1.01
CAATTCGTAG | 1.03
TAAGGAGCAC | 1.07
TTCCGGGAGT | 0.985
AGAGAGATGT | 1.01
TTACGCCATA | 1.08
GAGCATAAAG | 1
ACGCATACAA | 1.82
CGGAACTGT | 0.972
GCTTAAAGTT | 0.979
GTTGTAACCG | 0.986
GACTTCGGGG | 0.997
AGAACTTACA | 1.21
ACACGCTGCG | 1.02
TCTTACCGGT | 0.998
AGCTGCATGT | 0.979

Sequence | switch fluorescence ratio
ACGAATTGCG | 1.02
TGTGGGATA | 0.966
TGTGGGTTGC | 0.988
TAGAGGCATG | 1.08
CGTTAAAGCG | 0.933
TTTACCCGTT | 1
ATTCCTGGTT | 1.03
CAGATCATAC | 1.29
TAATTAAGGG | 0.975
TGGGCCATAG | 1.43
TTGTGTGAAG | 0.98
TAGATTGGCA | 1
CTGGACTCTG | 0.967
AGGAGATCTG | 0.987
AGGACGGGTC | 0.952
ACGTCTTTCC | 1.12
TTCCAGGGCG | 1.01
TTTTAAGGCG | 0.958
GCCGTGCTAC | 1.09
CGCATCACGA | 1.36
ACATTTATAA | 1.01
TGTGTAAGTT | 1.02
TAATTGTGGT | 0.996
TCACCGAGTA | 1.02
ACTTGTAGCA | 1.02
GGGGCTAACT | 0.97

Sequence | switch fluorescence ratio
CCACTACTAT | 1.05
CTGGATTGTG | 0.973
TGAGGTATCG | 1.01
TTCATTCGA | 1.02
GTGACAGTG | 1.04
TCAGCATATA | 1.53
ATGAAGAGTT | 0.984
TTGACCTATT | 1.05
CTTTCATAA | 1.04
AAAGATCAT | 1.02
GACTCCAGGT | 2.22
GATCGTGAGC | 1.05
AGTCCGTACA | 1.02
TGGGCAATCA | 1.11
TGCTGGAGCG | 0.993
TGATTTCTGG | 0.965
ATGCGTGGTC | 0.961
TTGTGCCCAA | 1.04
TACTGTGGGC | 1.02
CTTGTGCAGC | 1.12
TGTTGGCCGA | 1.02
ATATACTGTG | 1.02
CTCGGGCGGC | 0.941
GCACGCGAGG | 1.06
TCTCTAGCTA | 1.69
TCTGGGCACC | 0.984

Sequence | switch fluorescence ratio
TGATGCAACT | 1.06
TTTCGTCAGT | 1.25
TCAAGGGTCG | 0.999
ACTGTACGTC | 1.45
CATGGTCGTT | 1.04
CATATGGTGT | 0.991
CCTTTTCTGT | 0.964
AAGTAGCGAA | 0.991
TTGATCTTCG | 0.981
AGCGAAGGGT | 0.957
CCATCCAGCA | 2.86
TGACCATCTG | 0.979
CTTACTATCA | 1.01
AAACATAGAC | 1.04
TATCGTCAAC | 1.02
GGGTGTCGC | 0.994
GTTGGGAGT | 0.982
AGAGTCTATT | 1.03
CAACGTTGAC | 1.05
CGGCATAGTG | 1.01
AGTACGAGAA | 1.05
GAGCGCCAGG | 0.988
CACGACTTTC | 1.01
CCGGTGAACT | 1.15
TACTACGGCG | 1.04
GCAAGTCTCT | 1.05

Sequence | switch fluorescence ratio
GAAATGCTTA | 1.02
ATCGCTAGCA | 1.01
GAGTGATGG | 1.05
CGTCGTCATT | 1.01
TTTAAAGAT | 0.969
CACGTAATTT | 1.21
CTGAGAACGT | 1.03
CGCAGAGCAT | 1.01
TTTAATTAGA | 0.991
CTCACGACCG | 1.04
AGCAGGCTGG | 0.995
TATGGTAACA | 0.98
TTCCGGTCTG | 1.01
AACGACGGGC | 1.26
AAACTAAGTA | 1.01
CTTCTTGGAT | 1
TAAGGCGTAT | 1.06
GTGCTTGGAT | 1.01
TCTTGGTAAC | 1.04
CCTTTCAATG | 1.39
GGCGGTTAAA | 1.01
CGACGATGAG | 1.04
TGACCGCGGC | 1.09

Source: the supplement of paper PMC10126150
